Measurements published in PubChem BioAssay AID1468 (National Center for Advancing Translational Sciences (NCATS), 2008).
The campaign covered roughly 280,000 compounds. About 1,100 (0.39%) were called active. Inconclusive means that the source gave no clear call. Such entries were picked first, then a sample of the others. The call rests on the fitted dose curve; in most records, active means well fitted inhibition curve with a large enough effect; inconclusive means small, poorly fitted or top-dose-only effect, or effect the other way; inactive means flat fitted curve, though single readings scatter. A potency beside an inconclusive call is a rough fit, not a confirmed value.

The compounds below were run against Microtubule-associated protein tau (Homo sapiens) (UniProt P10636) (assay: qHTS for Inhibitors of Tau Fibril Formation, Fluorescence Polarization). Conditions: K18 P301L tau heparin fibrillization, Alexa594 FP, 6 h; series mostly up to 57.7 µM; activity, negative = inhibition: at the top concentration.
Method in brief: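 Steps: dispense K18 P301L tau (15 uM plus 0.24 uM Alexa 594 tracer, final) in pH 7 sodium acetate; add compound; add heparin (20 uM final); incubate 6 hr, 37 C; add ThT (30 uM final); after 1 hr ambient, read FP.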
Further: nearly all actives have a fitted effect of over 55% in size.
On the % scale 0 is the no-effect control and ±100 the full control effect; potency means the concentration at half of the fitted maximal effect; tags describe the fitted curve by direction and shape.

UniProt P10636, sequence (P10636 whole entry, looked up): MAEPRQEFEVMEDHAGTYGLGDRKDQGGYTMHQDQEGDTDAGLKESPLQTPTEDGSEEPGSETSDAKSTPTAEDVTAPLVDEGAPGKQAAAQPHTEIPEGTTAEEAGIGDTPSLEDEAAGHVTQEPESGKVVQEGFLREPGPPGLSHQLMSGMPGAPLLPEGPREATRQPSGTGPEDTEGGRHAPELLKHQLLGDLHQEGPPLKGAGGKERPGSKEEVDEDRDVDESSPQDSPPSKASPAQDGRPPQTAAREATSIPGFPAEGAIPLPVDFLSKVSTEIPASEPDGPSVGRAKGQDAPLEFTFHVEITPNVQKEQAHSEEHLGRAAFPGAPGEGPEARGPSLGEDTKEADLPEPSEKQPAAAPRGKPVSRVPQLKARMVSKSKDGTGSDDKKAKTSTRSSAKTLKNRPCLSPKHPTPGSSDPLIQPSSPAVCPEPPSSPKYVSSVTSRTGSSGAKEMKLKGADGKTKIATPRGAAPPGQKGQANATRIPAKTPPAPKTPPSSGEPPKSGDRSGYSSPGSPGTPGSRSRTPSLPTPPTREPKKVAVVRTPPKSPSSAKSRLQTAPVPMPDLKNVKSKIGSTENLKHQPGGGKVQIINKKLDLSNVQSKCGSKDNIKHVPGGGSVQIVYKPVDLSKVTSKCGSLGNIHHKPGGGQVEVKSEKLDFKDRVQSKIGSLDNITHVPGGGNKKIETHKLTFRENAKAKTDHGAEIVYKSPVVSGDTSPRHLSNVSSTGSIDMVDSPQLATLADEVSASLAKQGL

Potency, active:
CN1CC(O)C2=CC(=O)C(=O)C=C21 (centres undefined) 12.6 µM
CC(C)CCCCCCNC(=S)Nc1ccc(S(=O)(=O)N2CCOCC2)cc1 25.1 µM
COc1ccc(S(=O)(=O)c2c(SC)nn(CC(=O)Nc3ccc(C)c(Cl)c3)c2N)cc1 25.1 µM

Potency, inconclusive:
COc1cc(NC(=O)CSc2ncc3c(n2)-c2ccc(Cl)cc2N(Cc2ccccc2)S3(=O)=O)cc(OC)c1 12.6 µM [inhibitor, partial curve]
Clc1ccc(C2=Nc3cc(Cl)ccc3OC2)cc1 22.4 µM [inhibitor, single point]
CN1C=CC2=C(C#N)C(N)C(C#N)(C#N)C(c3ccccc3)C2C1 (centres undefined) 17.8 µM [inhibitor, partial curve]
CCOC(=O)c1c(NC(=O)CSc2cn(CCNC(=O)c3cccc(C(F)(F)F)c3)c3ccccc23)sc2c1CCC2 39.8 µM [inhibitor, single point]
COc1ccc(-c2cn[nH]c2-c2ccc(OCc3ccccc3)cc2O)cc1 31.6 µM [inhibitor, partial curve]
COc1cc(/C=C/c2nc(N)nc(-c3ccccc3O)n2)cc(OC)c1OC 3.98 µM [inhibitor, partial curve]
CCOC(=O)c1c(/N=C/c2cc(OC)cc([N+](=O)[O-])c2O)sc(C)c1C 1 µM [inhibitor, full curve, poor fit]
CCOC(=O)c1[nH]c2ccccc2c1NC(=O)c1cc(OC)cc(OC)c1 20 µM [activator, partial curve]
CCC1(C)Cc2c(C#N)c(N)sc(=S)c2CO1 (centres undefined) 11.2 µM [inhibitor, partial curve]
COC(=O)CCC(=O)OC1(C)C(=O)C=C2C=C(C3CC3)N(C3CCCCC3)C=C2C1=O (centres undefined) 15.8 µM [inhibitor, partial curve]
CCc1ccc2c(O)c3c(cc2c1C(=O)OC)C(=O)c1c(O)ccc(O)c1C3=O 5.62 µM [inhibitor, full curve]
O=C(Nc1ccc(F)c(F)c1)c1cc(S(=O)(=O)N2CCc3ccccc32)ccc1F 28.2 µM [inhibitor, partial curve]
CCOc1cc(/C=C2\SC(=O)N(c3ccc(O)cc3)C2=O)ccc1O 12.6 µM [activator, partial curve]
COc1ccc2c(c1)c(CC(=O)Nc1cccc(F)c1C)c(C)n2C(=O)c1ccc(Cl)cc1 20 µM [inhibitor, single point]
COc1ccc(-c2cc(CNC(=O)CN3CCN(C)CC3)on2)cc1 44.7 µM [inhibitor, single point]
O=C(Nc1ccc(Cl)c(Cl)c1)N1CC=C(c2ccccc2)CC1 39.8 µM [inhibitor, single point]
Cc1ccc(CNS(=O)(=O)c2cc(C(=O)Nc3ccc(C(C)C)cc3)ccc2F)cc1 39.8 µM [inhibitor, single point]
Clc1cc(Cl)c2nc(N3CCOCC3)sc2c1 39.8 µM [inhibitor, single point]
O=C(Nc1cc(C(F)(F)F)ccc1Cl)c1noc2c1CCCCC2 25.1 µM [inhibitor, single point]
Cc1[nH]c2ccccc2c1C(=O)CN1C(=O)NC2(CC(C)CC(C)(C)C2)C1=O (centres undefined) 39.8 µM [inhibitor, single point]
Cc1ccc(Nc2nc(N)nc(CSC(=S)N3CCN(c4ccccc4)CC3)n2)cc1 20 µM [inhibitor, single point]
Cc1ccc(C(=O)Nc2nnc(S(=O)(=O)N(C)Cc3ccco3)s2)cc1 28.2 µM [inhibitor, single point]
O=S(=O)(c1cccc(NC(=S)N2CCN(c3cccc(Cl)c3)CC2)c1)C(F)F 11.2 µM [inhibitor, partial curve]
CC1CCN(S(=O)(=O)c2ccc3c(ccn3CC(=O)NCc3ccccc3F)c2)CC1 28.2 µM [inhibitor, single point]
COC(=O)c1[nH]c2cc(C)ccc2c1NC(=O)CN1CCN(c2ccccc2OC)CC1 17.8 µM [activator, partial curve, poor fit]
CCC(C)(C)C1CCC(=NNc2nc3ccccc3[nH]2)CC1 (centres undefined) 17.8 µM [inhibitor, single point]
CC(=O)/C=C1\N(C)c2ccc(C)cc2C1(C)C 39.8 µM [activator, single point]
Cc1cnc(C(=O)NCCc2ccc(S(=O)(=O)NC(=O)NC3CCCCC3)cc2)cn1 44.7 µM [inhibitor, single point]

activity, negative = inhibition, inactive:
CCc1cc(-c2n[nH]c(C)c2-c2ccc3c(c2)OCCO3)c(O)cc1O 14.4%
C/C(=N\NC(=O)c1nc2ccccn2c1C)c1cc2ccccc2o1 3.88%
Cc1ccc(C)c(CSc2nc3ccncc3n2CC(=O)Nc2ccc(C)c(C)c2)c1 -15.4%
CC(C)(C)C1CCC(=NNc2ccc(S(N)(=O)=O)cc2[N+](=O)[O-])CC1 (centres undefined) 10.6%
CCCCNC(=O)C1CCC(CNc2c(N3CCC(C)CC3)c(=O)c2=O)CC1 (centres undefined) 1.03%
N#CC1=C(SCc2ccccc2)NC(=O)CC1c1ccco1 (centres undefined) -12.7%
COc1ccc(CCNC(=S)Nc2ccccc2C)cc1 -1.09%
COc1ccc(C2=C(C)C(N3CCC(C(=O)NCc4ccco4)CC3)=NS2(=O)=O)cc1 -9.59%
COc1ccc2c(CNC3CCCC3)c(C(=O)O)n(Cc3ccccc3C)c2c1 3.6%
CCc1nn2c(=O)cc(COC(=O)c3cccc(NC(=O)c4ccccc4C)c3)nc2s1 -3.75%
Cc1cc(=O)n2nc(N3CCC(C(=O)NCc4cccnc4)CC3)sc2n1 6.5%
COc1cccc(CNC(=O)c2ccc3c(c2)nc2n3CCOC2)c1OC 0.681%
O=C(NCc1ccccc1)Nc1cc(Cl)ccc1Cl -6.14%
